Test results published in publication PMC9926245.
Results are given in words; binding and its absence hold for the method and conditions named. In cells and extracts the contact can be indirect. Some entries that bind do so weakly or less than the wild type.

The chains behind the UniProt entries cited, without tags or fusion partners.
UniProt Q60867: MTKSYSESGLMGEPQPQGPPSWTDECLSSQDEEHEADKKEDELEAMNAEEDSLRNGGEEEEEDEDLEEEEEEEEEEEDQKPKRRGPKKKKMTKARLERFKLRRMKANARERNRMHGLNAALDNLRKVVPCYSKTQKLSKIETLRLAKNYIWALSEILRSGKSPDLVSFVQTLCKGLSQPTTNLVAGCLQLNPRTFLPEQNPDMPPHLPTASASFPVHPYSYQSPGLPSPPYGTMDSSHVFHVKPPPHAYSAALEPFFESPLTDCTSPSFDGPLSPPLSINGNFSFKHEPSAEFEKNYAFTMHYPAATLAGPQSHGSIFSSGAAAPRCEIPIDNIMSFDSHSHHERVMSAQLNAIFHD
UniProt O09106: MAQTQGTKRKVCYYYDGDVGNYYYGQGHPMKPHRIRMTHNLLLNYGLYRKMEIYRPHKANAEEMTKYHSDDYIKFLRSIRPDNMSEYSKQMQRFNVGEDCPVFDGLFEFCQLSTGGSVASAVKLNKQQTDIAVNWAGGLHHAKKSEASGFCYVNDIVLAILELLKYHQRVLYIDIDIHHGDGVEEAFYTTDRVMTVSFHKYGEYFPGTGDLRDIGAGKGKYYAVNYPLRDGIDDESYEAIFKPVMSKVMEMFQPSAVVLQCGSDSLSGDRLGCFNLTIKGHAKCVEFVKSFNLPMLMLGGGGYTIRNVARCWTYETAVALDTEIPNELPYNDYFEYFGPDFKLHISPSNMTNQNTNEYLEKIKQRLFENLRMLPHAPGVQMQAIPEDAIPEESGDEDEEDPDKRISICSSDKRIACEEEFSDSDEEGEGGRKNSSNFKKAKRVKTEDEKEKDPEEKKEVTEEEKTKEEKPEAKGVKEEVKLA
UniProt P70288: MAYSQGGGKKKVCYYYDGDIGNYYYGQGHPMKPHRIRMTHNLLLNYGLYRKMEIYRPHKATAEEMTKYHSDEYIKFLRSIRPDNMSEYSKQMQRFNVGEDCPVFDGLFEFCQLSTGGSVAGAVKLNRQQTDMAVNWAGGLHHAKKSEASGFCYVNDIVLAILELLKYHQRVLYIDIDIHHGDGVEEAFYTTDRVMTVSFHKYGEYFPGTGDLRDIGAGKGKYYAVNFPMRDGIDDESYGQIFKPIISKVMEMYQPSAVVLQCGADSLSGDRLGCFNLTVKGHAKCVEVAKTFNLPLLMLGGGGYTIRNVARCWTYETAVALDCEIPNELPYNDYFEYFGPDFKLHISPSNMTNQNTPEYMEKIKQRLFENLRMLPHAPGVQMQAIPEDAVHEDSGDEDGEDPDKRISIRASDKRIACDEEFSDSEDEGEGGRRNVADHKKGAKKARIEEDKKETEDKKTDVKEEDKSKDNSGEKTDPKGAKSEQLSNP
UniProt B2RWS6: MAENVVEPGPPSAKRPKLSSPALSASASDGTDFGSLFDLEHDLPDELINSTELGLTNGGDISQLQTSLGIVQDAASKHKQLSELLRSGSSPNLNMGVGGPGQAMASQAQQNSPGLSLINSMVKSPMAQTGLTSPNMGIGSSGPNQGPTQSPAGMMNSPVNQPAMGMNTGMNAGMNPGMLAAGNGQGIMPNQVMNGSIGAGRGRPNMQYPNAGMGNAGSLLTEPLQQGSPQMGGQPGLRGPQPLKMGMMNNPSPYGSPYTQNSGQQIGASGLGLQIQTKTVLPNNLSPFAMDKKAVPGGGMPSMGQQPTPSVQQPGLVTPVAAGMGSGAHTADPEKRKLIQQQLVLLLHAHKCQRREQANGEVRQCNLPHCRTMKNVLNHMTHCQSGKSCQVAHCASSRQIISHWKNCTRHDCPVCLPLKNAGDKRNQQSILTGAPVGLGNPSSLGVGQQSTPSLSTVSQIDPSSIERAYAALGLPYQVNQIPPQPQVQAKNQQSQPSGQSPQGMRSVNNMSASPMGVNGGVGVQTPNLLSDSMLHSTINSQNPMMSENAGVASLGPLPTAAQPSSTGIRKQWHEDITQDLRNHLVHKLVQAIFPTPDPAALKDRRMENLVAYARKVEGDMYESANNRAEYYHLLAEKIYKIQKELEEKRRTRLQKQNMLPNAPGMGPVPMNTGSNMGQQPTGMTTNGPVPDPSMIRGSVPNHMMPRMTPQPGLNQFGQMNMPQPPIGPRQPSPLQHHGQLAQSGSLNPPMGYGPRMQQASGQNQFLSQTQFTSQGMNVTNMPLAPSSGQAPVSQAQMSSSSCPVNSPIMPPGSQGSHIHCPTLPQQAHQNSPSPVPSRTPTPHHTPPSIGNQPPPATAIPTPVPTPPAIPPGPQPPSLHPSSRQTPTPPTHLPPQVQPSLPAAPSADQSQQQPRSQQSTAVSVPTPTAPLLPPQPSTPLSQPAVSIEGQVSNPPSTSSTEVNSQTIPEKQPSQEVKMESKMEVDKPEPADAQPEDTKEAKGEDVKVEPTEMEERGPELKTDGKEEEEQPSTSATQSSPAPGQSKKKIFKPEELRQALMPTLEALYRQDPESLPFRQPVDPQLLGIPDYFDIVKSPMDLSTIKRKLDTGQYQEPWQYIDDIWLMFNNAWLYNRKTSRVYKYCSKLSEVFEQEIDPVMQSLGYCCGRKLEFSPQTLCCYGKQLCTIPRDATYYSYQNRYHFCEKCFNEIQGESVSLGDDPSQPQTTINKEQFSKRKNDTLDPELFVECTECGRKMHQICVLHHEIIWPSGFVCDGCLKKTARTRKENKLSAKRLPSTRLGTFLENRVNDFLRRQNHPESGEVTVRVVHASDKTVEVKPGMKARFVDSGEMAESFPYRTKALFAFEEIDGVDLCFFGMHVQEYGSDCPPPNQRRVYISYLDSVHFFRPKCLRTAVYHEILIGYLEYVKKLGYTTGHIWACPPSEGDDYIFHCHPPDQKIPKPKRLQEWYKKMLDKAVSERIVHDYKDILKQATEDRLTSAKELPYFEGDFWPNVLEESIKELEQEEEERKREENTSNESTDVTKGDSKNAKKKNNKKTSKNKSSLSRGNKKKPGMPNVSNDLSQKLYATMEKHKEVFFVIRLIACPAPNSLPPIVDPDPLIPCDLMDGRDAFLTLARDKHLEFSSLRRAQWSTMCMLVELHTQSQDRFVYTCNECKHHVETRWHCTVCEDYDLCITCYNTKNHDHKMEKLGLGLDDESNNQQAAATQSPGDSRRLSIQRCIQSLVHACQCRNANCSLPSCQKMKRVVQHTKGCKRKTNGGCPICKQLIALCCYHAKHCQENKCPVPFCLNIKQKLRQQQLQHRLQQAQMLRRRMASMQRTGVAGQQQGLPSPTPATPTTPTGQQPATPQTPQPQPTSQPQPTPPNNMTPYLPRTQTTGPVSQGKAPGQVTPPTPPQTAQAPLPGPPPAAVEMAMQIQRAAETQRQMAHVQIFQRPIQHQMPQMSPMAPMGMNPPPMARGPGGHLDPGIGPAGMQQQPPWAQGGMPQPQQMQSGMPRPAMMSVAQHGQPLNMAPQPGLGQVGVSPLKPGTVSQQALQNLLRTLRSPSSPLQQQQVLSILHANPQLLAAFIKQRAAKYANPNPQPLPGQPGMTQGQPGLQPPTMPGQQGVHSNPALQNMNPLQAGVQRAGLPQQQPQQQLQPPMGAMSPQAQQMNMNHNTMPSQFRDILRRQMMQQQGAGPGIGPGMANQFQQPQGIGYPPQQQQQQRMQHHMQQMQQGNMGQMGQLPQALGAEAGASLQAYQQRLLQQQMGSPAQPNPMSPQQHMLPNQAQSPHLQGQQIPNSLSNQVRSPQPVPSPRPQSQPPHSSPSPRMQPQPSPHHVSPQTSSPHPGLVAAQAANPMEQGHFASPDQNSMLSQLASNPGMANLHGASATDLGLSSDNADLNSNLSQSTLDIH
UniProt Q60987: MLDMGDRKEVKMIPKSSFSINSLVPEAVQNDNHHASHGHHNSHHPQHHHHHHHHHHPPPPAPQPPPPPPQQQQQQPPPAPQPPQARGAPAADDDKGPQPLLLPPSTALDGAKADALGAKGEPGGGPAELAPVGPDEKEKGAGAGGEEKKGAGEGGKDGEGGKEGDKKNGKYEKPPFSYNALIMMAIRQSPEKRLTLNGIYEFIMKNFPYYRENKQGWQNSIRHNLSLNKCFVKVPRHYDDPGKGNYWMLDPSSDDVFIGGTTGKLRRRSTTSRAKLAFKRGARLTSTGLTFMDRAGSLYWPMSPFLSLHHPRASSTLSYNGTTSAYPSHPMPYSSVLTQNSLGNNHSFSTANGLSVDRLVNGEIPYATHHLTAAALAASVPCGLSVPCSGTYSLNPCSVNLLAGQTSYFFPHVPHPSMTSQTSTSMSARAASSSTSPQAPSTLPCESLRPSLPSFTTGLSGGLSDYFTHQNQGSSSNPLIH

Columns and labels:
[1] = biological target: NEUROD1 (mouse (endogenous in adult hippocampus and primary hippocampal neurons)) (UniProt Q60867); experiment: co-IP; NEUROD1 immunoprecipitation, immunoblot of FOXG1; adult hippocampus (in vivo) (n = 1)
[2] = biological target: T1, SIRT1 (mouse (endogenous in adult hippocampal tissue)) (UniProt Q923E4); experiment: co-IP; co-IP from hippocampal tissue of adult WT animals, immunoblots (n = 1); which protein was precipitated is not told
T1 sequence: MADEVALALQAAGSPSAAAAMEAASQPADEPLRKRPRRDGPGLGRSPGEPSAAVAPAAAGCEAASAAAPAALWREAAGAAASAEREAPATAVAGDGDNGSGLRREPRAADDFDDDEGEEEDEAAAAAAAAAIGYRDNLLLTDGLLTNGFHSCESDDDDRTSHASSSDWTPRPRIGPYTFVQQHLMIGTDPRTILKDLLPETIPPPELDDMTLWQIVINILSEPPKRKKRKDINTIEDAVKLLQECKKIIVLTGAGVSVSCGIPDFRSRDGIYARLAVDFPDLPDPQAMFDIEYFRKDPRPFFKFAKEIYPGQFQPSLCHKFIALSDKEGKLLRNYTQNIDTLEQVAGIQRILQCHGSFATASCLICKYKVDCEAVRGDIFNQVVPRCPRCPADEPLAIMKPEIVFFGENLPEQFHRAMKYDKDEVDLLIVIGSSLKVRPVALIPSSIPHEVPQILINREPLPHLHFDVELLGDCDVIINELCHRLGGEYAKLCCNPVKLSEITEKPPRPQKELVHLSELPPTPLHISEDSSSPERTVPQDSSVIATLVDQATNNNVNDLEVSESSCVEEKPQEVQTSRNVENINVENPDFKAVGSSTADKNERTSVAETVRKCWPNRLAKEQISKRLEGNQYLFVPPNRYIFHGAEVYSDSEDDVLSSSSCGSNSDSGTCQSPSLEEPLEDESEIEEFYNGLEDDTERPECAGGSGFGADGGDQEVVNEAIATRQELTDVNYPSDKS

[3] = biological target: HDAC1 (mouse (endogenous in adult hippocampal tissue)) (UniProt O09106); experiment: as above
[4] = biological target: HDAC2 (mouse (endogenous in adult hippocampal tissue)) (UniProt P70288); experiment: as above
[5] = biological target: EP300 (mouse (endogenous in adult hippocampal tissue)) (UniProt B2RWS6); experiment: as above
[6] = biological target: NEUROD1 (mouse (endogenous in adult hippocampus and primary hippocampal neurons)) (UniProt Q60867); experiment: co-IP; NEUROD1 immunoprecipitation, immunoblot of FOXG1; primary hippocampal neurons (in vitro) (n = 1)

binding [1]: binds | binding [2]: binds | binding [3]: binds | binding [4]: binds | binding [5]: no binding | binding [6]: binds
Substance: Forkhead box G1 (FOXG1) (from UniProt Q60987 1-481)
